Conditions: 2.5% DMSO / MES buffer

SMILES: COC(=O)/C(C)=C/C(O)CC(C)C1(C)CC=C2C3CCC4C(C)(C)C(O)CCC4(C)C3(O)CCC21C (stereo not shown) [GC2, Methyl (24E)-3a,9,23-trihydroxy-17,14-friedolanostan-14,24-dien-26-oate]
- solubility (in words): low solubility
